# Results published in PubChem BioAssay AID1347073 (National Center for Advancing Translational Sciences (NCATS), 2019).
# About 200 (0.44%) of roughly 45,000 compounds were called active. Roughly 7% stayed inconclusive and do not appear here. Calls come from the whole dose curve; as a rule, active = well fitted activation curve with a large enough effect; inconclusive = small, poorly fitted or top-dose-only effect; inactive = no such curve, though single readings can be large or run the other way. The list shows a part of the results.
# Test: qHTS of TDP-43 Inhibitors: NCGC Sytravon Library Screen; note: 0% is about no effect; nearly all actives have a fitted effect of over 55% in size
# Details: yeast TDP-43 toxicity rescue, BacTiter-Glo growth, 24 h; series mostly up to 46.1 µM; growth rescue (activation): at the top concentration
# In short: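 TDP-43-expressing yeast, pregrown in raffinose, seeded at OD600 0.02 in galactose medium with compound for 24 hr at 30 deg C. Growth read by BacTiter-Glo luminescence, so rescue of toxicity appears as activation.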
row,SMILES,growth rescue (activation)
1,O=C(N/N=C/c1ccc[nH]1)c1ccc(O)cc1,inactive: 3.95%
2,COc1cc(NC(=O)c2ccc(CNc3c(N4CCCC4)c(=O)c3=O)cc2)cc(OC)c1OC,inactive: 28.4%
3,O=C(CN(C(=O)CCC(=O)Nc1ccccn1)c1ccc(F)cc1)NCc1ccco1,inactive: 5.72%
4,COc1ccccc1CNC(=O)COc1ccc(S(=O)(=O)N2CCOCC2)cc1C,inactive: -2.47%
5,CC1=NNC(=O)C1CC(=O)N/N=C(\C)c1cccs1 (stereo not drawn),inactive: 3.74%
6,O=C(COC(=O)CNC(=O)c1ccccc1F)NCC(F)(F)F,inactive: -2.15%
7,CCc1nc2ccc(C(=O)NCCc3ccccn3)cn2c1N(C)CCC(C)C,inactive: -9.78%
8,CCCCn1c(=O)c(CCC(=O)OCC(=O)Nc2ccc(F)c(Cl)c2)nc2ccccc21,inactive: 5.02%
9,CCCOc1ccc(N2C(=O)CC(N(Cc3ccco3)C(=O)CC)C2=O)cc1 (stereo not drawn),inactive: 3.96%
10,Cc1ccc(NC(=O)CCN2C(=O)c3cccc4cccc(c34)C2=O)cc1,inactive: 5.8%
11,O=[N+]([O-])c1cc(/C=N/N2CCN(Cc3ccccc3)CC2)ccc1Cl,inactive: -5.42%
12,Cc1ccc(/C=C/C(=O)N2CCN(S(=O)(=O)c3c(C)c(C)cc(C)c3C)CC2)o1,inactive: -18.5%
13,COc1ccc(Cl)cc1-n1nnc(-c2nc(-c3ccc4c(c3)OCO4)no2)c1C,inactive: 13.7%
14,COc1ccc([N+](=O)[O-])cc1NC(=O)c1cncc(Br)c1,inactive: 17.2%
15,COc1cc(C(C(=O)NCc2ccccc2)N(C(=O)c2snc(C(N)=O)c2N)C2CCCC2)cc(OC)c1OC (stereo not drawn),inactive: -5.67%
16,Cc1ccccc1NN=Nc1nc2c([nH]1)c(=O)n(C)c(=O)n2C,inactive: -21.3%
17,O=C(O)c1nc(-c2ccccc2)n(-c2ccccc2)n1,inactive: 8.03%
18,Cc1ccsc1/C=N\NC(=O)c1n[nH]c2c1CCC2,inactive: -19.5%
19,CC1Cc2ccccc2N1C(=O)COC(=O)Cn1nnc(-c2ccccc2)n1 (stereo not drawn),inactive: 31%
20,Cc1c(CC(=O)O)c(=O)oc2cc(OCc3ccc(F)cc3F)ccc12,inactive: 11.1%
21,COc1ccc(C/C(C)=N/NC(=O)c2ccc(C)cc2C)cc1,inactive: 10.3%
22,CCOC(=O)N1CCN(C(=O)C2CCC(=O)N(CCCc3ccccc3)C2)CC1 (stereo not drawn),inactive: 17.6%
23,COc1cc(/C=N/NC(=O)CNC(=O)/C=C/c2ccco2)cc(OC)c1OC,inactive: -13.1%
24,O=C(CN1C(=O)/C(=C/c2ccccc2)SC1=S)Nc1ncc(Cc2ccccc2)s1,inactive: 29.1%
25,Cc1ccc(C(=O)Nc2cccnc2)cc1S(=O)(=O)N1CCCCCC1,inactive: 12.6%
26,CCOc1ccc(-n2c(SCC(=O)Nc3cc(OC)c([N+](=O)[O-])cc3C)nc3ccccc32)cc1,inactive: 5.73%
27,O=C(CCc1ccc(S(=O)(=O)N2CCOCC2)cc1)NN=C1CCCCCCC1,inactive: 9.99%
28,C=CCOc1ccc(/C=N/NC(C)=O)cc1OCC,inactive: 25.3%
